Measurements as given in PubChem BioAssay AID360 (National Center for Advancing Translational Sciences (NCATS), 2006).
In all, about 48,000 compounds went through this assay and about 550 (1.1%) were called active. About 4% were inconclusive and are not listed. Rule as the data show it: active = potency below about 15 µM; inconclusive = mostly about 16 µM to 33 µM; inactive = weaker than that. The list shows a part of the results.

target: Lysosomal acid glucosylceramidase (Homo sapiens) (UniProt P04062); test: Glucocerebrosidase; conditions: purified enzyme, resorufin glucoside fluorescence (screen aimed at inhibitors), 20 min; series mostly up to 77 µM;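 also: the screen sought inhibitors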
Procedure, shortened: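 Normal human glucocerebrosidase (0.2 nM final) was assayed with resorufin β-D-glucopyranoside (30 uM final) in 50mM citric acid/KH2PO4, 10mM sodium taurocholate, 0.01% tween-20, pH 5.9. Compounds were titrated; fluorescence (Ex 548, Em 600) read after 20 min at RT.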
Potency is read from the fitted curve at half-maximal effect.

UniProt P04062, sequence (P04062 whole entry, looked up): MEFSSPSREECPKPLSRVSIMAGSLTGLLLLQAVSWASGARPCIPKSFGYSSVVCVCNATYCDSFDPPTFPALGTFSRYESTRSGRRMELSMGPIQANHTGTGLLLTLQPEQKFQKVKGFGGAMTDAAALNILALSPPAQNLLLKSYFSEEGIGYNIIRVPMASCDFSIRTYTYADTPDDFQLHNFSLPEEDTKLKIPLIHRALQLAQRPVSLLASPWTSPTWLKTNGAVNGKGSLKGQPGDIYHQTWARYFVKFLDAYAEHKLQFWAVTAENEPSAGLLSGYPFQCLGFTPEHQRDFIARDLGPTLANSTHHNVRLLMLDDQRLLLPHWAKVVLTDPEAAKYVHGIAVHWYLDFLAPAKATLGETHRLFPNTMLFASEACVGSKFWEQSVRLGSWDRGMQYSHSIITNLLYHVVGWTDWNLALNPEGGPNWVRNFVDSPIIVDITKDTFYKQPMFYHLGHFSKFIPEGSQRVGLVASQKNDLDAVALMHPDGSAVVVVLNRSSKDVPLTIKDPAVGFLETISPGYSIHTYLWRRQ

Potency, inactive:
O=C(O)c1ccc2c(c1)C(=O)N(c1cc(C(=O)O)ccc1Br)C2=O > 76.9 µM
O=C(CSc1nnc(-c2ccncc2)o1)Nc1ccccc1Cl > 76.9 µM
COC(=O)c1ccc2c(c1)NC(=O)C(N1CCCC1)S2 (stereo not drawn) > 76.9 µM
CCC1CCCCN1C(=O)C1CC(c2cc(Cl)c(OC)cc2OC)=NO1 (stereo not drawn) > 76.9 µM
COC(=O)C1=C(C)NC(=O)NC1c1cc(Cl)ccc1OC (stereo not drawn) > 76.9 µM
CNC(=O)CCC(=O)Nc1ccc(C(=O)OC)cc1 > 76.9 µM
O=C(COC(=O)c1cccs1)c1ccccc1 > 76.9 µM
COCC(C)NC(=O)C1CC(c2cccc(Br)c2)=NO1 (stereo not drawn) > 76.9 µM
Cn1c(CCNC(=O)OC(C)(C)C)n[nH]c1=S > 76.9 µM
COc1ccc(OC)c2[nH]c(=O)c(CCNC(=O)c3ccc(S(=O)(=O)N4CCCCC4)cc3)cc12 > 76.9 µM
CC(C)(C)NC(=O)C(c1ccccc1)N(C(=O)c1csnn1)C1CC1 (stereo not drawn) > 76.9 µM
COc1ccc(-n2nc3ccc(NS(C)(=O)=O)cc3n2)cc1Cl
C/C(N)=C(/C#N)C(=O)COC(=O)COc1ccc(Cl)cc1 > 76.9 µM
Cn1c(=O)c2cn(-c3cccc4ccccc34)cc2n(C)c1=O > 76.9 µM
CCOc1ccc(C2C=C(c3ccc(C)cc3)Nc3nnnn32)cc1 (stereo not drawn)
O=C1CNCc2[nH]c3ccccc3c2N1c1ccccc1
Cc1cc(SCC(=O)Nc2ccccc2)nc(C)n1 > 76.9 µM
CCOc1ncccc1C(=O)OCc1ccc(C(=O)OC)o1 > 76.9 µM
C=CCn1c(SCC(=O)Nc2c(C)nn(Cc3ccccc3)c2C)nnc1C(O)c1ccccc1 (stereo not drawn) > 76.9 µM
COc1ccc(CN2CC(C(=O)NCc3ccccn3)CC2=O)cc1 (stereo not drawn) > 76.9 µM
Cc1ccc(C(=O)NCCCNCCCN(C)C)cn1 > 76.9 µM
C=CCSc1nnc(NC(=O)CSc2nnc(C)s2)s1 > 76.9 µM
COc1ccc(NC(=O)N2CCCC(c3nc(-c4ccc(C(C)C)cc4)no3)C2)cc1 (stereo not drawn)
CCOC(=O)N1CCN(C(=O)CCn2nc(-c3ccccc3)ccc2=O)CC1 > 76.9 µM
COc1ccc(-n2nc(C(=O)NCC(=O)NCc3ccco3)c3ccccc3c2=O)cc1Cl > 76.9 µM
COC(=O)c1ccc(-c2ccc(C(=O)N3CCCN(C)CC3)cc2)cc1 > 76.9 µM
C=CCNC(=O)N[C@@H](CCSC)C(=O)OC > 76.9 µM
COc1cccc(CNC(=O)CCn2c(=O)oc3ccccc32)c1 > 76.9 µM
Cc1ccc(NC(=O)CS(=O)CC(=O)NCC2OCCc3ccccc32)c(C)c1 (stereo not drawn) > 76.9 µM
CCOC(=O)CN1C(=O)c2ccccc2C1=O > 76.9 µM
O=C1CCCc2nc(N3CCN(Cc4ccccc4)CC3)ncc21 > 76.9 µM
COc1ccc(C(c2nnnn2Cc2ccc(F)cc2)N2CCN(c3ccc(OC)cc3)CC2)cc1 (stereo not drawn) > 76.9 µM
Cc1cc(Nc2ncc(Cl)cc2Cl)n(-c2ccccn2)n1 > 76.9 µM
Cn1c(SCc2ccccc2F)nc2cccnc21 > 76.9 µM
COc1cccc2cc(-c3nnc(SCC(=O)Nc4cc(C(F)(F)F)ccc4Cl)n3N)oc12 > 76.9 µM
COC(=O)c1cc(OC)c(OC)cc1NC(=O)Nc1ccccc1OC > 76.9 µM
Cc1cc(NC(=O)C2CCCCC2C(=O)O)no1 (stereo not drawn) > 76.9 µM
CC(=NCc1ccco1)c1c(C)[nH]n(-c2nc3ccccc3s2)c1=O > 76.9 µM
O=S(=O)(Cc1ccccc1Cl)N1CCN(Cc2ccc3c(c2)OCO3)CC1 > 76.9 µM
O=C(CSc1nnc(-c2ccoc2)o1)N1CCOCC1 > 76.9 µM
CCCC(=O)Nc1ccc(NC(=O)C2CC2)cn1 > 76.9 µM
CCCCOCCCNC(=O)N[C@@H](CCSC)C(=O)OC > 76.9 µM
Cn1c(NCc2c[nH]c3ccccc23)nc2ccccc21 > 76.9 µM
COC(=O)Cc1cc(=O)n2[nH]c(C)nc2n1 > 76.9 µM
O=C(CN(C(=O)CNS(=O)(=O)c1ccccc1)C1CCCC1)NCc1ccco1 > 76.9 µM
COCCOC(=O)C1=C(C)N(Cc2ccccc2)C(=O)NC1c1cccc(OC)c1OC (stereo not drawn) > 76.9 µM
CCCCCCn1c(N2CCN(c3cccc(Cl)c3)CC2)nc2c1c(=O)[nH]c(=O)n2C > 76.9 µM
Cc1nc2nc[nH]n2c(=O)c1NC(=O)c1c(-c2ccccc2Cl)noc1C > 76.9 µM
Nn1c(SCC(=O)Nc2ccc(F)cc2)nnc1-c1ccccn1 > 76.9 µM
O=C(CN1C(=O)c2ccccc2S1(=O)=O)Nc1ccccc1C(=O)NCc1ccco1 > 76.9 µM
CC(NC(=O)CN1CCC(C(N)=O)CC1)c1ccccc1 (stereo not drawn) > 76.9 µM
COc1ccc(NC(C)=O)cc1NC(=O)CSc1nc2ncccc2[nH]1 > 76.9 µM
Cc1cc(NC(=O)c2ccco2)ncc1NC(=O)CCc1ccccc1 > 76.9 µM
CCN(CC)c1ncccc1C(=O)NCc1cccs1 > 76.9 µM
O=C(c1cc2cc(Cl)ccc2oc1=O)N1CCCC1 > 76.9 µM
COc1ccc(CCN(C)C(=O)CN2C(=O)c3ccccc3S2(=O)=O)cc1OC > 76.9 µM
CCOC(=O)c1cnn(CCOC(=O)c2cccs2)c1NC(=O)c1cccs1 > 76.9 µM
Nc1cc(=O)[nH]c(SCC(=O)NCC2CCCO2)n1 (stereo not drawn) > 76.9 µM
COc1ccc(-n2ncc3c(N4CCc5ccccc54)ncnc32)cc1 > 76.9 µM
CCCCNC(=O)CCCn1c(=O)[nH]c2ccc(Br)cc2c1=O
COc1ccc(-n2nnnc2SCC(=O)Nc2ccc3c(c2)OCCO3)cc1OC > 76.9 µM
Brc1ccccc1-c1nnc(CSc2nncn2-c2ccccc2)o1 > 76.9 µM
CCOc1ccccc1NC(=O)CCC(=O)O > 76.9 µM
CCn1nnnc1SCC(=O)Nc1cccc(C)n1 > 76.9 µM
CCC(=O)Nc1c(-c2ccc(OC)cc2)c(=O)c2ccccc2n1C > 76.9 µM
CC(=O)N1CCCc2cc(S(=O)(=O)N3CCc4ccccc4C3)ccc21 > 76.9 µM
Cc1ccc(NCc2nnc(SCC(N)=O)n2CCc2ccccc2)cc1 > 76.9 µM
OCCNc1ncnc2c1ncn2Cc1ccccc1 > 76.9 µM
CCc1cc2cc(C)cc(C)c2nc1SCC(=O)N1CCN(C(=O)c2ccco2)CC1 > 76.9 µM
CCNc1cccc2c1C(=O)N(C)C2=O > 76.9 µM
CCOC(=O)C1(CC)CC(CSc2nc3ccccc3[nH]2)OC1=O (stereo not drawn) > 76.9 µM
CC1CCCN(c2nc3c(c(=O)n(C)c(=O)n3C)n2CCSc2nc3ccccc3s2)C1 (stereo not drawn) > 76.9 µM
COC(=O)c1nnn(CC(=O)Nc2cccc(OC)c2)c1C(=O)OC > 76.9 µM
COC(=O)c1ccc(OCC2c3cc(OC)c(OC)cc3CCN2C(=O)c2ccco2)cc1 (stereo not drawn) > 76.9 µM
CC(C)c1nc(-c2c(N)n(C)c(=O)n(C)c2=O)sc1C(=O)C(C)(C)C > 76.9 µM
CCOC(=O)c1cccnc1SCC(=O)N(C)c1ccccc1 > 76.9 µM
CN(C)C(=O)CSc1nc2ccccc2c(=O)[nH]1 > 76.9 µM
COc1ccccc1N1CCN(C(=O)CSc2nnc(NC(=O)C3CC3)s2)CC1 > 76.9 µM
Cc1ccc(N2CCN(c3ccc(C)cc3)C2c2ccccn2)cc1 > 76.9 µM
C=CCN1C(=Nc2cccnc2)SCC1(O)c1ccc(C)cc1 (stereo not drawn) > 76.9 µM
CC(C)n1c(-c2cccnc2)nc2cnccc21 > 76.9 µM
Cc1ccc(N2CCCCn3c2nc2c3c(=O)n(CC(=O)O)c(=O)n2C)cc1 > 76.9 µM
CCOC(=O)c1c(NC(=O)CSc2nnc(CNc3ccc(OC)cc3)n2C)sc(C)c1C
CCN(CC)C(=O)CSc1nnc(-c2ccccc2)n1N > 76.9 µM
c1ccc(Cc2nnc3sc(-c4ccccn4)nn23)cc1 > 76.9 µM
CC1(C)CC(CCC(=O)Nc2ccccc2Cl)C(=O)O1 (stereo not drawn) > 76.9 µM
COC(=O)c1ccc2c(c1)N(Cc1nc(-c3cccc(Cl)c3)oc1C)C(=O)C1CCCN21 (stereo not drawn) > 76.9 µM
COc1cc(C2=Nc3c(c(C)nn3-c3ccccc3)P(=O)(N3CCOCC3)O2)cc(OC)c1OC (stereo not drawn) > 76.9 µM
O=C(COn1nnc2ccc(Cl)cc21)NCc1ccccc1 > 76.9 µM
O=c1c2ccccc2nc(COc2ccccc2)n1/N=C/c1ccco1 > 76.9 µM
O=C(CSc1ccccc1C(=O)O)Nc1cccc(C(=O)O)c1 > 76.9 µM
O=C(c1ccco1)N1CCN(C(c2ccccn2)c2nnnn2C2CCCC2)CC1 (stereo not drawn) > 76.9 µM

Potency, active:
COc1ccc(C(=O)Nc2nnc(C(F)(F)F)s2)cc1 3.35 µM
